Laboratory results as given in patent US11178870B2 (priority 2017, dated 2021).

Tested on: Colletotrichum orbiculare
Conditions: in vivo

Row | SMILES | Test H control value
1 | COc1cc(F)c(-c2c(-n3cc(Cl)cn3)cc(Br)c(=O)n2C)c(F)c1 [Compound 178] | H (key: H shows the control value more than 50%; L shows the control value of 50% or less)
2 | CCn1c(-c2c(F)cc(F)cc2F)c(-n2c(Cl)ccc2Cl)cc(Cl)c1=O [Compound 133] | H (key: H shows the control value more than 50%; L shows the control value of 50% or less)
3 | CCn1c(-c2c(F)cc(F)cc2F)c(-c2cccnc2Cl)ccc1=O [Compound 61] | H (key: H shows the control value more than 50%; L shows the control value of 50% or less)
4 | Cn1c(-c2c(F)cc(F)cc2F)c(-n2cc(Cl)cn2)cc(Cl)c1=O [Compound 175] | H (key: H shows the control value more than 50%; L shows the control value of 50% or less)
5 | CCn1c(-c2c(F)cccc2F)c(-c2cnc(Cl)o2)cc(Cl)c1=O [Compound 87] | L (key: H shows the control value more than 50%; L shows the control value of 50% or less)
6 | CCn1c(-c2c(F)cc(OC)cc2F)c(-n2cc(Br)cn2)cc(Br)c1=O [Compound 78] | H (key: H shows the control value more than 50%; L shows the control value of 50% or less)
7 | CCn1c(-c2c(F)cccc2F)c(-c2cnc(N)o2)cc(Cl)c1=O [Compound 135] | L (key: H shows the control value more than 50%; L shows the control value of 50% or less)
8 | CCn1c(-c2c(F)cc(F)cc2F)c(-n2cc(OC)cn2)cc(Cl)c1=O [Compound 128] | L (key: H shows the control value more than 50%; L shows the control value of 50% or less)
9 | CCn1c(-c2c(F)cc(F)cc2F)c(-n2cc(Cl)c(C)n2)cc(Cl)c1=O [Compound 142] | H (key: H shows the control value more than 50%; L shows the control value of 50% or less)
10 | CCOC(=O)c1cncn1-c1cc(Cl)c(=O)n(CC)c1-c1c(F)cc(F)cc1F [Compound 129] | L (key: H shows the control value more than 50%; L shows the control value of 50% or less)
11 | Cn1c(-c2c(F)cc(F)cc2F)c(-c2cccnc2Cl)cc(Br)c1=O [Compound 104] | H (key: H shows the control value more than 50%; L shows the control value of 50% or less)
12 | CCn1c(-c2c(F)cc(OC)cc2F)c(-n2cc(Cl)cn2)cc(Br)c1=O [Compound 73] | H (key: H shows the control value more than 50%; L shows the control value of 50% or less)
13 | CCn1c(-c2c(F)cc(F)cc2F)c(-n2cc(C=O)cn2)cc(Cl)c1=O [Compound 123] | L (key: H shows the control value more than 50%; L shows the control value of 50% or less)
14 | O=c1c(Br)cc(-c2cccnc2Cl)c(-c2c(F)cccc2F)n1CC(F)(F)F [Compound 64] | L (key: H shows the control value more than 50%; L shows the control value of 50% or less)
15 | Cn1c(-c2c(F)cc(F)cc2F)c(-c2cccnc2Cl)cc(Cl)c1=O [Compound 100] | H (key: H shows the control value more than 50%; L shows the control value of 50% or less)
16 | CCn1c(-c2c(F)cc(OC)cc2F)c(-c2cccnc2Cl)ccc1=O [Compound 79] | H (key: H shows the control value more than 50%; L shows the control value of 50% or less)
17 | CCN1C(=O)CCC(n2cccn2)=C1c1c(F)cccc1F [Compound 30] | L (key: H shows the control value more than 50%; L shows the control value of 50% or less)
18 | O=c1c(Cl)cc(-c2cccnc2Cl)c(-c2c(F)cc(F)cc2F)n1CC(F)F [Compound 68] | H (key: H shows the control value more than 50%; L shows the control value of 50% or less)
19 | CCn1c(-c2ccc(F)cc2C)c(-n2cc(Cl)cn2)cc(Br)c1=O [Compound 171] | L (key: H shows the control value more than 50%; L shows the control value of 50% or less)

Row | SMILES | Test H control value
20 | CCn1c(-c2c(F)cc(OC)cc2F)c(-c2c(Cl)cnn2C)cc(Cl)c1=O [Compound 29] | H (key: H shows the control value more than 50%; L shows the control value of 50% or less)
21 | CCn1c(-c2c(F)cccc2F)c(-c2cccnc2Cl)cc(Br)c1=O [Compound 55] | H (key: H shows the control value more than 50%; L shows the control value of 50% or less)
22 | CCn1c(-c2c(F)cc(OC)cc2F)c(C2OCCCO2)cc(Cl)c1=O [Compound 10] | H (key: H shows the control value more than 50%; L shows the control value of 50% or less)
23 | CCn1c(-c2c(F)cc(OC)cc2F)c(C2OCCO2)cc(Cl)c1=O [Compound 12] | H (key: H shows the control value more than 50%; L shows the control value of 50% or less)
24 | CCn1c(-c2c(F)cc(F)cc2F)c(-c2ocnc2F)cc(Cl)c1=O [Compound 120] | H (key: H shows the control value more than 50%; L shows the control value of 50% or less)
25 | CCn1c(-c2ccc(F)cc2Br)c(-n2cc(Cl)cn2)cc(Cl)c1=O [Compound 165] | H (key: H shows the control value more than 50%; L shows the control value of 50% or less)
26 | CCn1c(-c2c(F)cccc2F)c(-c2cccnc2Cl)cc(C)c1=O [Compound 66] | H (key: H shows the control value more than 50%; L shows the control value of 50% or less)
27 | CCn1c(-c2c(F)cc(OC)cc2F)c(-c2ocnc2F)cc(Cl)c1=O [Compound 127] | H (key: H shows the control value more than 50%; L shows the control value of 50% or less)
28 | CCn1c(-c2c(F)cc(F)cc2F)c(-n2c(C)ccc2C)cc(Cl)c1=O [Compound 125] | H (key: H shows the control value more than 50%; L shows the control value of 50% or less)
29 | CCn1c(-c2ccc(F)cc2C)c(-n2cc(Cl)cn2)cc(Cl)c1=O [Compound 170] | H (key: H shows the control value more than 50%; L shows the control value of 50% or less)
30 | Cn1c(-c2c(F)cccc2F)c(-c2cccs2)ccc1=O [Compound 14] | L (key: H shows the control value more than 50%; L shows the control value of 50% or less)
31 | CCn1c(-c2c(F)cccc2F)c(-c2ccsc2Br)cc(Br)c1=O [Compound 54] | L (key: H shows the control value more than 50%; L shows the control value of 50% or less)
32 | CCn1c(-c2c(F)cc(F)cc2F)c(-c2ocnc2Br)cc(Cl)c1=O [Compound 113] | H (key: H shows the control value more than 50%; L shows the control value of 50% or less)
33 | CCn1c(-c2c(F)cc(F)cc2F)c(-c2ocnc2Br)cc(Br)c1=O [Compound 97] | H (key: H shows the control value more than 50%; L shows the control value of 50% or less)
34 | CCn1c(-c2c(F)cc(OC)cc2F)c(-c2ocnc2Br)cc(Br)c1=O [Compound 103] | H (key: H shows the control value more than 50%; L shows the control value of 50% or less)
35 | CCn1c(-c2ccc(F)cc2F)c(-n2cc(Cl)cn2)cc(Br)c1=O [Compound 150] | H (key: H shows the control value more than 50%; L shows the control value of 50% or less)
36 | CCn1c(-c2c(F)cccc2F)c(-n2ncc(C)c2Cl)ccc1=O [Compound 153] | H (key: H shows the control value more than 50%; L shows the control value of 50% or less)
37 | CCn1c(-c2c(F)cccc2F)c(-c2cnc(NC)o2)cc(Cl)c1=O [Compound 134] | L (key: H shows the control value more than 50%; L shows the control value of 50% or less)
